Experimental findings from paper PMC8243516, “Inhibition of lysosomal phospholipase A2 predicts drug-induced phospholipidosis” (Journal of Lipid Research, 2021) are described below.

Series [1] concerns the target T1, recombinant mouse LPLA2 (PLA2G15) (Mus musculus, UniProt Q8VEB4).
T1 construct: purchased Proteos Inc. (Kalamazoo, MI)
T1 sequence (Q8VEB4 34-412): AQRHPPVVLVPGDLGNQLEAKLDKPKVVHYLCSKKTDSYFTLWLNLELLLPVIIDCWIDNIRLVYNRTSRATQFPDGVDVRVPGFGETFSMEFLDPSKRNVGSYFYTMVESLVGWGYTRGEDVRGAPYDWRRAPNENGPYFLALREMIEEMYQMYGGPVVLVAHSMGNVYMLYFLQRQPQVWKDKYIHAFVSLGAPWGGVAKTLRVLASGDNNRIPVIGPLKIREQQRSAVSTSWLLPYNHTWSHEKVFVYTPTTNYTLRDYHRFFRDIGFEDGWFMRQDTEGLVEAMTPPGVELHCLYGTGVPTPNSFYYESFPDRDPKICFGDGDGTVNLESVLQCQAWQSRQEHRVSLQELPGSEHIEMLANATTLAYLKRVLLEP
Nature of the series: Transacylase activity of LPLA2 (1-O-acyl-N-acetylsphingosine synthase, cell-free liposome assay). The format is biochemical.

In another series the target is T2, LPLA2 (Mus musculus, UniProt Q8VEB4).
T2 construct: purchased Proteos Inc. (Kalamazoo, MI)
T2 sequence (Q8VEB4 34-412): T1 sequence (Q8VEB4 34-412)
Put plainly: LPLA2 thermal stability measurement (SYPRO Orange Tm). The format is binding.

Another series has as its system MDCK cells. Put plainly: Screening phospholipidosis assay (LipidTOX Red / NucBlue Live fluorescence ratio). The conditions noted are these: LipidTOX Red to NucBlue Live fluorescence ratio, 24 h.
The mark [2] stands for this setting: 1-O-acyl N-acetylsphingosine synthase activity, pH 4.5, DOPC/sulfatide liposomes, read-out: LPLA2 IC50.
Setting [3] is: LPLA2 dependent 1-O-acyl N-acetylsphingosine synthase activity, read-out: LPLA2 IC50.

A word on the IC50: it is the point on the concentration scale where inhibition reaches its midpoint.

Like-named read-outs stand apart in the source and are kept apart here.

For the compound `COc1ccc(CCN2CCC(Nc3nc4ccccc4n3Cc3ccc(F)cc3)CC2)cc1` [Astemizole, 1-(4-fluorobenzyl)-2-(1-[4-methoxyphenethyl]piperidin-4-yl)aminobenzimidazole], the half-maximal inhibitory concentration (IC50) in series [1] (setting [2]) came to 8.19 µM. For the compound `CN1[C@@H]2CC[C@H]1C[C@@H](OC(c1ccccc1)c1ccccc1)C2` [Benztropine], in series [1] (setting [3]), the IC50 turned out to be 59 µM. On to `C(=Cc1ccccc1)CN1CCN(C(c2ccccc2)c2ccccc2)CC1` [Cinnarizine, 1-(diphenylmethyl)-4-(3-phenylprop-2-en-1-yl) piperazine], for which, at LPLA2 (N=3 ± SD), the “(ΔTm)c-(ΔTm)d, difference in melting temperature of LPLA2 alone or in the presence of drug” value (“(ΔTm)c-(ΔTm)d, difference” for short) is 0.54 ± 0.9 °C. In addition, in series [1] (setting [2]), the IC50 amounted to 40.6 µM. With `CN1CCC[C@@H]1CCO[C@](C)(c1ccccc1)c1ccc(Cl)cc1` [Clemastine], the “(ΔTm)c-(ΔTm)d, difference” value at LPLA2 (N=3 ± SD) was determined as 0.16 ± 0.9 °C. In addition, the IC50 in series [1] (setting [2]) is 13.2 µM.

Regarding `CCN(CC)CCOc1ccc(C(=C(Cl)c2ccccc2)c2ccccc2)cc1` [Clomifene], in series [1] (setting [3]), the IC50 was determined as 12.9 µM.

Regarding `CN(C)CCCN1c2ccccc2CCc2ccc(Cl)cc21` [Clomipramine, (3-{14-chloro-2-azatricyclo[9.4.0.0^3,^8]pentadeca-1(11), 3,5,7,12,14-hexaen-2-yl}propyl)dimethylamine], the IC50 in series [1] (setting [2]) came out at 17 µM. `CN1CCN(C2=Nc3cc(Cl)ccc3Nc3ccccc32)CC1` [Clozapine, 8-Chloro-11-(4-methyl-1-piperazinyl)-5H-dibenzo[b,e][1,4]-diazepine]: the IC50 in series [1] (setting [2]) was found to be 10.8 µM. As for `Clc1ccc2c(c1)CCc1cccnc1C2=C1CCNCC1` [Desloratadine], at LPLA2, the “(ΔTm)c-(ΔTm)d, difference” value amounted to 0.30 ± 0.1 °C.

Regarding `CN(C)CCOC(c1ccccc1)c1ccccc1` [Diphenhydramine], in series [1] (setting [2]), the IC50 was found to be 270 µM. With `CN(C)CCC=C1c2ccccc2COc2ccccc21` [Doxepin, dimethyl(3-{9-oxatricyclo[9.4.0.0ˆ[1]]pentadeca-1(15),3,5,7,11,13-hexaen-2-ylidene}propyl)amine], the IC50 in series [1] (setting [2]) was 301 µM. Same read-out and setting: the figure for `Fc1ccc(C(c2ccc(F)cc2)N2CCN(C/C=C/c3ccccc3)CC2)cc1` [Flunarizine, 1-[bis(4-fluorophenyl)methyl]-4-[(2E)-3-phenylprop-2-en-1-yl]piperazine] is 7.49 µM.

`CN(C)C(=O)C(CCN1CCC(O)(c2ccc(Cl)cc2)CC1)(c1ccccc1)c1ccccc1` [Loperamide, 4-[4-(4-chlorophenyl)-4-hydroxypiperidin-1-yl]-N,N-dimethyl-2,2-diphenylbutanamide]: in series [1] (LPLA2 IC50), the half-maximal inhibitory concentration (IC50) was 149 µM. Regarding `CNCCCC12CCC(c3ccccc31)c1ccccc12` [Maprotiline, methyl(3-{tetracyclo [6.6.2.0^2,^7.0^9,^14]hexadeca-2,4,6,9,11, 13-hexaen-1-yl}propyl)amine], the IC50 in series [1] (setting [2]) is 12 µM.

As to `CN(C)CCN(Cc1cccs1)c1ccccn1` [Methapyrilene, N-[2-(dimethylamino)ethyl]-N-[(thiophen-2-yl)methyl]pyridin-2-amine], the “(ΔTm)c-(ΔTm)d, difference” value on LPLA2 (N=3 ± SD) was -0.48 ± 0.2 °C. Besides, the “LPLA2 inhibition (in words)” value in series [1] (acyl transferase activity) is on record as “no inhibitory activity”.

As for `Cc1ccccc1C(OCCN(C)C)c1ccccc1` (centres unmarked) [Orphenadrine], at LPLA2 (N=3 ± SD), the “(ΔTm)c-(ΔTm)d, difference” value was -0.38 ± 0.3 °C. In addition, in the series on MDCK cells, the “Ratio (15 μM)” value is listed as 0.29. Also, the 50% inhibitory concentration (IC50) in series [1] (setting [3]) is 259 µM. As for `CN1CCN(CCCN2c3ccccc3Sc3ccc(Cl)cc32)CC1` [Prochlorperazine], in series [1] (setting [3]), the IC50 was 42.4 µM. Turning to `CC(C)NCC(O)COc1cccc2ccccc12` (centres unmarked) [Propranolol, 1-(naphthalen-1-yloxy)-3-[(propan-2-yl)amino]propan-2-ol], the IC50 in series [1] (setting [2]) is 49.9 µM. As to `CSc1ccc2c(c1)N(CCC1CCCCN1C)c1ccccc1S2` (centres unmarked) [Thioridazine, 10-[2-(1-methylpiperidin-2-yl)ethyl]-2-(methylsulfanyl) -10H-phenothiazine], in series [1] (setting [2]), the IC50 stood at 38 µM.
